# Test results as given in PubChem BioAssay AID624296 (National Center for Advancing Translational Sciences (NCATS), 2012).
# Screen size: about 350,000 compounds; about 9,900 (2.8%) were called active. Inconclusive means that the source gave no clear call. Such entries were picked first, then a sample of the others. Calls follow the shape of the dose curve; as a rule, active = well fitted activation curve with a large enough effect; inconclusive = small, poorly fitted or top-dose-only effect; inactive = no such curve, though single readings can be large or run the other way. No potency is given beside an inconclusive call; the fits are too rough.
# Assay: A quantitative high throughput screen for small molecules that induce DNA re-replication in MCF 10a normal breast cells. Also: nearly all actives have a fitted effect of over 50% in size. As to activity, positive = re-replication: % of control where 0% means no effect.
# Settings: MCF 10A DNA re-replication, Hoechst nuclear intensity, 48 h; activity, positive = re-replication: at 46.1 µM (top of the series)
# Potency is read from the fitted curve at half-maximal effect; tags tell the direction and shape of the fitted curve.
Compound,Potency,"activity, positive = re-replication"
CC1(O)CCC2C3CCC4=CC(=O)CCC4=C3C=CC21C (stereo unspecified),"inconclusive [activator, partial curve, poor fit]",
O=C(O)COc1ccc(Br)cc1C(c1c(C(=O)O)[nH]c2ccccc12)c1c(C(=O)O)[nH]c2ccccc12,"inconclusive [activator, partial curve, poor fit]",
Cc1ccc(C(C)C)c(OCCn2c(=O)oc3ccccc32)c1,"inconclusive [activator, single point]",
CSc1nc(N2CCN(C)CC2)c2ccccc2n1,"inconclusive [activator, partial curve, poor fit]",
COC(=O)C1=C(c2cccc(C#N)c2)C[C@@H]2CC[C@H]1N2C(=O)NCCOc1ccccc1Cl,inactive,
CC(C)(C)c1ccc(O)c(N=Cc2c(O)ccc3ccccc23)c1,"inconclusive [activator, single point]",
COc1ccc(OC)c(-n2c(O)c(C=Nc3c(C)n(C)n(-c4ccccc4)c3=O)c(=O)[nH]c2=O)c1,,inconclusive: 101% [activator]
COc1ccc(NC(=O)N(C)C[C@H]2Oc3c(NS(=O)(=O)c4ccc(F)cc4)cccc3C(=O)N([C@H](C)CO)C[C@@H]2C)cc1,"inconclusive [activator, single point]",
Oc1cc2c(cc1CN1CCN(c3ccccc3)CC1)CCC2,"inconclusive [activator, single point]",
COC(=O)C1=C(c2cccc(OCc3ccccc3)c2)C[C@@H]2CC[C@H]1N2C(=O)NCc1cccc(C(F)(F)F)c1,"inconclusive [activator, single point]",
O=C(Nc1cccc(C(F)(F)F)c1)c1cccn(Cc2ccc3c(c2)OC(F)(F)O3)c1=O,"inconclusive [activator, partial curve, poor fit]",
CN1CCN(c2ccc(/C=C3\C(=O)NC(=S)N(c4cccc(Br)c4)C3=O)o2)CC1,"inconclusive [activator, single point]",
CCOC(=O)C(O)(c1ccc(N(CC)C(=O)OC)cc1)C(F)(F)F (stereo unspecified),inactive,
O=C(N/N=C/c1c(O)n(Cc2ccc(F)cc2)c(=O)[nH]c1=O)c1ccccc1O,"inconclusive [activator, single point]",
COc1ccc(CC(C)NCCc2ccc(OC)c(OC)c2)cc1 (stereo unspecified),"inconclusive [activator, partial curve, poor fit]",
CC/C(CC(c1ccccc1)c1c(O)c2ccccc2oc1=O)=N\NC(N)=S (stereo unspecified),"inconclusive [activator, full curve, poor fit]",
CCOc1ccc(N2C(=O)NC(=O)/C(=C\c3ccccc3[N+](=O)[O-])C2=O)cc1,"inconclusive [activator, single point]",
CN(C)c1cccc2c(C#N)ccc(N(C)C)c12,"inconclusive [activator, single point]",
O=C(NCc1ccccc1)c1cccn(Cc2ccccc2)c1=O,inactive,
Cc1nn(Cc2ccccc2)c(C)c1C=C1C(=O)NC(=S)NC1=O,"inconclusive [activator, single point]",
CC1=CC(O)C(O)C2(C)C1CC1OC(=O)CC3C(C)C(O)C(=O)C2C13CO (stereo unspecified),inactive,

Compound,Potency,"activity, positive = re-replication"
O=P(CCl)(Nc1ccccc1)C(Cl)(Cl)Cl (stereo unspecified),"inconclusive [activator, partial curve, poor fit]",
C[N+]1([O-])[C@@H]2CC(OC(=O)[C@@H](CO)c3ccccc3)C[C@@H]1[C@H]1O[C@H]12 (stereo partly specified),inactive,
Cc1c(C(=O)c2cccc3ccccc23)c2cccc3c2n1[C@H](CN1CCOCC1)CO3,"inconclusive [activator, single point]",
CCOc1ccc(CN2CCCC(C(=O)c3ccccc3OC)C2)cc1 (stereo unspecified),"inconclusive [activator, partial curve, poor fit]",
CC(=O)c1ccc(OC(NC(=O)Cc2ccccc2)C(Cl)(Cl)Cl)cc1 (stereo unspecified),"inconclusive [activator, full curve, poor fit]",
O=c1[nH]c(=O)n(-c2cccc3ccccc23)c(O)c1/C=N/N1CCCCCC1,inactive,
COc1ccc(-n2c(O)c(/C=C3\C=Nc4ccc(Br)cc43)c(=O)[nH]c2=O)cc1,"inconclusive [activator, partial curve, poor fit]",
c1ccc2nc(N3CCNCC3)ccc2c1,"inconclusive [activator, full curve, poor fit]",
CCN(CC)C(=O)Oc1ccc(NC(=O)N2CCOCC2)cc1,,inconclusive: 23.4% [activator]
CN(C)C(=O)Oc1ccc(OC(=O)N(C)C)cc1,"inconclusive [activator, single point]",
CC(C)c1ccc(N=Nc2c(O)[nH]c(=O)[nH]c2=O)cc1,"inconclusive [activator, single point]",
O=C1CN=C(c2ccccc2F)c2cc(Cl)ccc2N1,"inconclusive [activator, single point]",
Clc1ccc(CO/N=C(\Cn2ccnc2)c2ccc(Cl)cc2Cl)c(Cl)c1,"inconclusive [activator, partial curve]",
COC(=O)C1=C(c2ccc(S(C)(=O)=O)cc2)C[C@@H]2CC[C@H]1N2C(=O)NC(C)C,"inconclusive [activator, full curve, poor fit]",
CCN(CC)S(=O)(=O)c1cc(NC(=O)C(C)N2CC=C(c3ccccc3)CC2)ccc1C (stereo unspecified),inactive,
Cc1ccc(OCC(=O)N2CCN(C3CCC(c4ccccc4)CC3)CC2)cc1 (stereo unspecified),active: 13 µM,
Cc1ccc(S(=O)(=O)CC(=O)c2cc(C)c(OC(=O)N(C)C)c(C)c2)cc1,"inconclusive [activator, full curve, poor fit]",
C[C@H](O)[C@H]1CC[C@H]2[C@@H]3CCC4=CC(=O)CC[C@]4(C)[C@H]3CC[C@]12C,"inconclusive [activator, single point]",
CNCCc1nc(N)n[nH]1,inactive,
O=c1[nH]cnc2nc(-c3ccc(N(CCCl)CCCl)cc3)[nH]c12,active: 14.6 µM,
COc1ccccc1N1CCN(Cc2cc(C)c(C)cc2O)CC1,"inconclusive [activator, single point]",

Compound,Potency,"activity, positive = re-replication"
CC(=O)OCC12CC(OC(=O)CC(C)C)C(C)=CC1OC1C(O)C(OC(C)=O)C2(C)C12CO2 (stereo unspecified),"inconclusive [activator, full curve, poor fit]",
Cc1sc2c(c1C)C(c1cccs1)=NCC(=O)N2CC(=O)NCc1cccs1,"inconclusive [activator, full curve, poor fit]",
CCCOP(=O)(OCCC)c1nc(-c2ccccc2)oc1NCc1ccccc1,"inconclusive [activator, full curve, poor fit]",
O=C(c1cc2c(s1)CCCCCC2)N1CCC2(CC1)OCCO2,"inconclusive [activator, partial curve, poor fit]",
COc1ccc(SCC2CN(C)CCC2c2ccc(F)cc2)cc1 (stereo unspecified),"inconclusive [activator, single point]",
CCC1CCC(C)N(N=O)C1 (stereo unspecified),"inconclusive [activator, single point]",
CC1C(c2cccs2)=[N+]([O-])C(C)(C(=O)c2ccc(F)cc2)N1O (stereo unspecified),"inconclusive [activator, full curve, poor fit]",
COc1cc(/C=C2\C(=O)NC(=O)N(c3ccccc3)C2=O)cc(OC)c1OC,inactive,
CCOc1cc2c(cc1OCC)-n1cccc1C(c1cccc(F)c1F)NC2 (stereo unspecified),"inconclusive [activator, single point]",
C/C=C1\NC(=O)[C@@H](NC(=O)[C@H](CCc2ccc(O)cc2)NC(=O)[C@H](C)NC(=O)[C@H](O)CO)[C@@H](C)OC(=O)[C@H](C(C)C)NC(=O)[C@H](Cc2ccc(O)cc2)N(C)C(=O)[C@H](Cc2ccccc2)N2C(=O)C(CC[C@H]2O)NC1=O (stereo partly specified),"inconclusive [activator, single point]",
COc1cc(/C=C/[N+](=O)[O-])ccc1O,"inconclusive [activator, single point]",
COC(=O)C1=C(c2ccc(OC(F)(F)F)cc2)C[C@@H]2CC[C@H]1N2C(=O)N1CCCCC1,inactive,
CN1C(=O)NC(=O)/C(=C\C=C\c2ccccc2[N+](=O)[O-])C1=O,"inconclusive [activator, single point]",
O=C(O)c1ccc(NC(=O)N2C[C@H]3C[C@@H](C2)c2cccc(=O)n2C3)cc1,"inconclusive [activator, partial curve, poor fit]",
CN1CCC(N2CC3CC(C2)c2cccc(=O)n2C3)CC1 (stereo unspecified),inactive,
CCOC(=O)CN1C(=O)N[C@@H](c2cccc(C(F)(F)F)c2)C(C(C)=O)=C1C,"inconclusive [activator, full curve, poor fit]",
CCC1CCCCN1CCCNS(=O)(=O)c1ccc2c(c1)oc(=O)n2C (stereo unspecified),"inconclusive [activator, partial curve]",
O=c1c2ccccc2nc(-c2ccccc2)n1-n1cccc1,"inconclusive [activator, partial curve, poor fit]",
C=CCOC(=O)C1C(C(=O)O)C2(Cl)C(Cl)=C(Cl)C1(Cl)C2(Cl)Cl (stereo unspecified),inactive,
